Test results reported in the supplement of paper PMC11417369.
The other results are listed elsewhere or left out.

system: PfSIP2 AP2 domain 1 (GST-tagged); test: gcPBM binding intensity (ln(normalized median fluorescence intensity)); higher = stronger DNA binding
How it was run: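 The binding buffer was 1× PBS containing 1% milk, 0.2 mg/ml BSA, 0.5% salmon testes DNA and 0.03% Triton X-100. In it, GST-tagged P. falciparum DNA-binding domains expressed in E. coli were applied for 1 h to an Agilent 4 × 180k array of primer-extended double-stranded 36-bp intergenic genomic probes plus negative controls. Binding intensity, read with Alexa488 anti-GST antibody and a 488 nm scan, is the highest Masliner-normalised natural-log median intensity across replicate spots of either probe orientation.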

Row | Sequence | gcPBM binding intensity (ln)
1 | AATGATAATCTATTATGTACACATATATTCTTATGT [XGTACX_site4148] | 6.93
2 | TATATATATATATTATGTACATATATAAATTAACAT [XGTACX_site3368] | 9.08
3 | AATATAGGAATATGCACACATATATACATACATACA [CACACA_site1521] | 7.55
4 | TTTTTTAAAGTTTAAAGTACATATAAAAATATATAA [XGTACX_site5267] | 6.79
5 | TATGAAAAAAAAAAAAAAAAAAAAAAAAAAAAAAAA [XGTACX_negctrl_site587] | 6.99
6 | TATATATGGATATATACACACAACGGTTATAAATAT [CACACA_site6655] | 6.91
7 | AAAAAAATAAAATATATATATATATATATATATATA [GTGCAC_negctrl_site706] | 9.72
8 | AATTAATAAAAAAGGTGTACAGTAAATGCAATAATC [XGTACX_site7956] | 7.65
9 | TCTTTTATATATAATAATTATATATAACATTCAAAC [GTGCAC_negctrl_site112] | 7.1
10 | ATAAATTCATACATTTGTACACAAAAAAAAAAAAAA [XGTACX_site2435] | 7.13
11 | CCTTATACGATATTATGTACGCATATGTGCATTTTT [XGTACX_site1570] | 7.21
12 | ATATATATATATTTATGTACATATTATTTATTCTTT [XGTACX_site6567] | 9.33
13 | ATTATTTGATTAAAGGTGCAAGGATAATAATAAAAC | 10.3
14 | TAATGGTATAAAAAATGTACATGTTTTTTTACAATT [XGTACX_site4285] | 6.99
15 | TATTATATAATATACTGTACAATATCCATTATTTAC [XGTACX_site7091] | 7.06
16 | TATATTTACTTATATGCACACATAAATGTGAATTAT [CACACA_site9258] | 7.12
17 | ACATATAATAAAATAGTGCATTGTTAGTTTTATATA | 9.85
18 | AAAGGAAAAGTTGACTGTACATAAGTAAAAAATAAT [XGTACX_site788] | 7.01
19 | AAAAAAAAAAAAAACACACAGAAATATATATATATT [CACACA_site832] | 7.16
20 | TTTATACAAATATGTACACACTAAATATATATTATG [CACACA_site4413] | 7.13
21 | ATTCATTCCATACTTTAACACACAAATATATTTAAT [CACACA_site7930] | 7.48
22 | TTTTTGTAACCGATTCTGCACTGAGAAGCACATATA | 7.65

Row | Sequence | gcPBM binding intensity (ln)
23 | ATATTATACGCATATGTGCGCATACATTTTTTTGCA [GTGCAC_site9540] | 8.44
24 | TTATTTACAAAACAAATCAAAATATCCAAAAGAATA [CACACA_negctrl_site1789] | 6.61
25 | GAAATTACTTTATAAACACACATTTATTTTATTTTA [CACACA_site7007] | 6.91
26 | GGCATATATATATGCACACATACATATATACATGTG [CACACA_site3859] | 7.34
27 | TACACATACAGACATACACACATACCCATATACTCA [CACACA_site5037] | 7.21
28 | TCATATTTATATAAATGTACTTAATTGGTTTCTTTA [XGTACX_site7848] | 6.59
29 | ATGTTATTAATAATTGCACACATTTTTTTTTTTTTT [CACACA_site3920] | 7.56
30 | AGATTGTAAGTAAACACACACACATATATATGTATA [CACACA_site675] | 6.96
31 | TTTGTATTAAAAAAAAAAAAAAAAAAAATGAATAAA [TGCATGCA_negctrl_site292] | 6.71
32 | ATAACGGAAAAAAAAAGTACATGATATAAACATGAA [XGTACX_site8428] | 6.91
33 | TTTTTTTTTTTTTTTTTTTTTTTTCATTTGATATTA [TGCATGCA_negctrl_site112] | 6.97
34 | TTATTTATTCTATGTGCATGTTATTTTTTTTTTTCG [TGCATGCA_site262] | 7.6
35 | AAAAATAAGATATATACACACATATAAATATAAATA [CACACA_site7396] | 6.82
36 | TATATATATATATGTGGTACATAAAATTATTATTTT [XGTACX_site4554] | 9.55
37 | ATAAAATTATCTACATGTACTCATATATATTTGTTT [XGTACX_site5911] | 7.17
38 | AGAGAGAAAGTTATAACATGCAACAATTTTTAGAAG [TGCATGCA_site1] | 6.97
39 | CTTTAAACCCTGAACACACACAAATACACCCAAAAA [CACACA_site4297] | 7.39
40 | TTTTTATGTGTATATTATTACATTTACATCTTTAAC [CACACA_negctrl_site1676] | 6.88
41 | ACAAGACAACAAGGAAGTACTCATAAATATATTTGG [XGTACX_site1423] | 6.98
42 | CTCACATATATATATAGTACAATTTTTTTTTTTTTT [XGTACX_site5999] | 7.28
43 | ATGTAGAATTGTAAATGTACATGAAACACATATTCA [XGTACX_site3436] | 6.94
44 | AAGAAAAATACTACGTGTACCAAACTTCCTACCAAC [XGTACX_site1426] | 6.82
